Assay results as given in PubChem BioAssay AID504339 (National Center for Advancing Translational Sciences (NCATS), 2011).
Out of some 390,000 compounds screened, about 17,000 (4.4%) were called active. Inconclusive means that the source gave no clear call. Such entries were picked first, then a sample of the others. The call rests on the fitted dose curve; in most records, active means well fitted inhibition curve with a large enough effect; inconclusive means small, poorly fitted or top-dose-only effect; inactive means no such curve, though single readings can be large or run the other way. Potencies of inconclusive entries are doubtful fits and often do not repeat.

Molecular target: Lysine-specific demethylase 4A (Homo sapiens) (UniProt O75164)
UniProt O75164, sequence (O75164 whole entry, looked up, the tested form may be a part): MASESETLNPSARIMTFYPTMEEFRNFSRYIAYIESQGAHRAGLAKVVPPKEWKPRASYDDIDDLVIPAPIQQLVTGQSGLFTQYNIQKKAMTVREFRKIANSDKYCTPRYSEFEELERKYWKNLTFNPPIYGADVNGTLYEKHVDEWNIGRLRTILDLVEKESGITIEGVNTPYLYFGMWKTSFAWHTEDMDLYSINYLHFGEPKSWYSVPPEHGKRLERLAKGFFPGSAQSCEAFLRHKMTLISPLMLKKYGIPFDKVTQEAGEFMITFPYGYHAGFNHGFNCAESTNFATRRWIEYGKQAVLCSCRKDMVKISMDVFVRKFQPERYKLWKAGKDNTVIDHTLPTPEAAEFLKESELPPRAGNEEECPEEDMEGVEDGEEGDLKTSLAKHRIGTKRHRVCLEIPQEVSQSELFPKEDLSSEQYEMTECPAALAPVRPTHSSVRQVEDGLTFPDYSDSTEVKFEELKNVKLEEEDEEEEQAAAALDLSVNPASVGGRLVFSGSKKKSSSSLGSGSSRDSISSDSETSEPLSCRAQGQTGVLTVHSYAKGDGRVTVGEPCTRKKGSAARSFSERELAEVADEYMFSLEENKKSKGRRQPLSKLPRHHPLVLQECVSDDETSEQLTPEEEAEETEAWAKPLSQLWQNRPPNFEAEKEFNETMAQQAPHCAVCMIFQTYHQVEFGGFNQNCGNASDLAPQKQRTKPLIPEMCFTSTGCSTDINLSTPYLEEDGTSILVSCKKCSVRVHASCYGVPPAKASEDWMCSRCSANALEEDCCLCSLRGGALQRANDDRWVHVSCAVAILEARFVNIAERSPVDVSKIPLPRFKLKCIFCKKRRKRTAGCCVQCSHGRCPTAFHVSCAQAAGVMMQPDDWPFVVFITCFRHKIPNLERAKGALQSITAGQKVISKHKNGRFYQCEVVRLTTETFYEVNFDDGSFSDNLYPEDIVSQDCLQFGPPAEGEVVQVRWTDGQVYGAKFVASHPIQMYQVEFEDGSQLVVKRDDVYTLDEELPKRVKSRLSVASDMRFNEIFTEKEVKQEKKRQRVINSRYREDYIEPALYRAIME
Assay: qHTS Assay for Inhibitors of JMJD2A-Tudor Domain; further: nearly all actives have a fitted effect of over 50% in size
Conditions: AlphaScreen JMJD2A-Tudor / H3K4me3 peptide binding; series mostly up to 114 µM
Potency means the concentration at half of the fitted maximal effect; tags describe the fitted curve by direction and shape.

Q: How did the Potency turn out when `CSC(=S)N/N=C/c1ccccc1` was run?
A: inconclusive: 44.7 µM [inhibitor, partial curve]

Q: For `CC(C)CN(CC(C)C)C(=O)C1CCCN(S(=O)(=O)c2ccc3c(c2)oc(=O)n3C)C1` (stereo unspecified), which Potency is on record?
A: inactive

Q: Which Potency does the source give for `COc1ccccc1CNC(=S)Nc1ccc2nc(N3CCN(C)CC3)cc(C)c2c1` here?
A: inconclusive: 56.2 µM [inhibitor, partial curve]

Q: `COc1ccc(N2CCN(CCCNS(=O)(=O)c3ccc4c(c3)oc(=O)n4C)CC2)cc1` was tested. Which Potency did it give?
A: inconclusive: 63.1 µM [inhibitor, partial curve]

Q: `Cn1cc(CCCC(=O)NCc2ccccc2)c2ccccc21` was tested. Which Potency did it give?
A: inconclusive: 44.7 µM [inhibitor, single point]

Q: For `CCN(CC)C(=O)c1[nH]cnc1C(=O)NCc1ccc(CNC(=O)OC(C)(C)C)cc1`, which Potency is on record?
A: inactive

Q: With `O=C(CN1CCN(CC(=O)Nc2ccc3c(c2)OC2(CCCCC2)O3)CC1)Nc1cccc(F)c1` as the compound, how does the Potency read?
A: inconclusive: 12.6 µM [inhibitor, partial curve]

Q: `COc1ccc(C2CC(c3ccccc3OC(C)=O)=NN2C(=O)/C=C/c2ccccc2)cc1OC` (stereo unspecified) was tested. Which Potency did it give?
A: inconclusive: 20 µM [inhibitor, full curve, poor fit]

Q: How did the Potency turn out when `CN(CC(=O)Nc1ncn[nH]1)S(=O)(=O)c1cc(Cl)ccc1Cl` was run?
A: inconclusive: 14.1 µM [inhibitor, full curve]

Q: With `O=C(CSc1ncnc2ccccc12)Nc1ccc2c(c1)OCCO2` as the compound, how does the Potency read?
A: inactive

Q: For `CCOc1ccc(/C=C2\SC(=S)N(CCC(=O)N(CCO)c3ccccc3)C2=O)cc1`, which Potency is on record?
A: inconclusive: 56.2 µM [inhibitor, partial curve]

Q: How did the Potency turn out when `CCCC[n+]1c(C)sc2ccc(C)cc21` was run?
A: inactive

Q: For `NS(=O)(=O)c1ccc(N=C2C(=O)Nc3ccccc32)cc1`, which Potency is on record?
A: inactive

Q: For `CC(C)C[C@H]1CNC(=S)N1CC1CCCN1C[C@H](CC(C)C)N1C[C@H](Cc2ccccc2)N(CC2CCCCCC2)C1=S` (stereo partly specified), which Potency is on record?
A: inconclusive: 17.8 µM [inhibitor, full curve]

Q: How did the Potency turn out when `COc1ccc(-c2nc(NC(=O)c3[nH]c(C)c(C(C)=O)c3C)sc2C)cc1` was run?
A: inconclusive: 15.8 µM [inhibitor, full curve]

Q: `Cc1cccc(/C=N/n2c(-c3cc(-c4ccccc4)n[nH]3)n[nH]c2=S)c1` was tested. Which Potency did it give?
A: active: 79.4 µM

Q: `CC1=Nn2c(nnc2-c2ccccn2)SC1` was tested. Which Potency did it give?
A: active: 22.4 µM

Q: For `CCCCCN(C(=O)CSc1n[nH]c(-c2ccc(C)cc2)n1)c1c(N)n(CCCC)c(=O)[nH]c1=O`, which Potency is on record?
A: inactive

Q: For `O=C(NC(=S)N1CCCCC1CO)c1cccs1` (stereo unspecified), which Potency is on record?
A: active: 2.82 µM

Q: How did the Potency turn out when `COc1ccc(NC(=O)Cn2cc(C(=O)c3ccccc3)c(=O)c3cc(OC)ccc32)c(OC)c1` was run?
A: inactive

Q: How did the Potency turn out when `COc1cc(C(=S)N2CCCC2)ccc1O` was run?
A: inactive

Q: How did the Potency turn out when `C/C(=C\C(=O)c1ccccc1)Nc1cccc(O)c1` was run?
A: inconclusive: 28.2 µM [inhibitor, partial curve]

Q: How did the Potency turn out when `Cc1cc(N/N=C/c2ccncc2)nc2ccccc12` was run?
A: inconclusive: 100 µM [inhibitor, partial curve]

Q: Which Potency does the source give for `CC(=O)c1cccc(NC(=S)N2CCN(c3ccccn3)CC2)c1` here?
A: inactive

Q: With `Cc1c(C(=O)NCc2cccc(Cl)c2)sc2nc[nH]c(=O)c12` as the compound, how does the Potency read?
A: inactive

Q: Which Potency does the source give for `COc1ccccc1NC(=S)NCC1CCCCC1` here?
A: inconclusive: 15.8 µM [inhibitor, single point]

Q: How did the Potency turn out when `O=C1NN(c2ccc(F)cc2)C(=O)/C1=C\C=C\c1ccco1` was run?
A: inconclusive: 28.2 µM [inhibitor, single point]

Q: Which Potency does the source give for `O=C(Nc1ccc2c(c1)CCCN2C(=O)c1cccs1)c1ccccc1` here?
A: inconclusive: 44.7 µM [inhibitor, partial curve]

Q: For `N#CC(c1nc2ccccc2nc1N1CCCC1)S(=O)(=O)c1cccs1` (stereo unspecified), which Potency is on record?
A: inconclusive: 56.2 µM [inhibitor, partial curve]

Q: Which Potency does the source give for `O=C(Nc1cccc(Cl)c1)c1ccccc1` here?
A: inactive

Q: For `CCN1CCN(Cc2ccc(NC(=O)c3ccc(C)c(NC(=O)c4cc(-c5ccc(Br)cc5)n[nH]4)c3)cc2C(F)(F)F)CC1`, which Potency is on record?
A: inconclusive: 56.2 µM [inhibitor, partial curve]

Q: How did the Potency turn out when `O=C(c1ccc(COc2ccc3c(c2)CCC3)o1)N1CCN(c2ccccc2)CC1` was run?
A: inconclusive: 20 µM [inhibitor, full curve, poor fit]

Q: For `CC(C)c1ccc(OCc2ccc(C(=O)N(C)C)o2)cc1`, which Potency is on record?
A: inactive

Q: How did the Potency turn out when `COC(=O)c1c(C)[nH]c(C(=O)CSc2ccc(Cl)cc2)c1C` was run?
A: inactive

Q: How did the Potency turn out when `O=C(O)c1ccc(OCCn2ccnc2)cc1` was run?
A: inconclusive: 89.1 µM [inhibitor, single point]

Q: For `Cc1ccc(NCc2nnc(SCC(=O)Nc3cccc(O)c3)n2CC2CCCO2)c(C)c1` (stereo unspecified), which Potency is on record?
A: inconclusive: 63.1 µM [inhibitor, partial curve]

Q: How did the Potency turn out when `Cc1ccccc1-c1nn(-c2ccc(F)cc2F)cc1CNCCCN(C)C` was run?
A: inconclusive: 35.5 µM [inhibitor, partial curve]

Q: `CCCCOc1cccc(C(=O)N(Cc2ccc(N(C)C)cc2)C2CCS(=O)(=O)C2)c1` (stereo unspecified) was tested. Which Potency did it give?
A: active: 56.2 µM

Q: How did the Potency turn out when `O=C(Oc1ccc(N2C(=O)C3C4CCC(C4)C3C2=O)cc1)c1ccco1` (stereo unspecified) was run?
A: inactive

Q: With `CC(=O)N1CCc2cc([N+](=O)[O-])ccc21` as the compound, how does the Potency read?
A: inactive

Q: `COc1ccc(S(=O)(=O)N2CCN(C3CCCC(C)C3)CC2)cc1` (stereo unspecified) was tested. Which Potency did it give?
A: active: 1.26 µM

Q: For `C=CCN1CCN(C(=O)CCc2ccccc2)CC1`, which Potency is on record?
A: inactive

Q: How did the Potency turn out when `Cc1cc(-c2nc3ncccc3o2)ccc1NC(=O)c1ccccc1Br` was run?
A: inactive

Q: For `COCCNC(=O)C(=O)NNS(=O)(=O)c1ccc2ccccc2c1`, which Potency is on record?
A: inconclusive: 2.51 µM [inhibitor, full curve, poor fit]

Q: For `COc1ccccc1-n1c(SCC(=O)N2CCCC2)nnc1-c1ccccc1`, which Potency is on record?
A: inactive

Q: For `Cc1cccc(N2CCN(Cc3nnc(-c4ccccc4C)o3)CC2C)c1` (stereo unspecified), which Potency is on record?
A: active: 79.4 µM

Q: For `Oc1cccc(/C=N/Nc2cccc3cccnc23)c1`, which Potency is on record?
A: inconclusive: 35.5 µM [inhibitor, full curve, poor fit]

Q: How did the Potency turn out when `O=C(CNc1cc(S(=O)(=O)N2CCOCC2)ccc1N1CCCC1)Nc1ccc(Cl)cc1` was run?
A: inconclusive: 11.2 µM [inhibitor, partial curve]

Q: With `Cc1nn(C)cc1/C=N\NC(=O)c1ccc2c(c1)c(C)c(C)n2Cc1ccccc1` as the compound, how does the Potency read?
A: active: 56.2 µM

Q: How did the Potency turn out when `CCOc1ccc(CCNC(=O)C2(c3ccccc3)CC2)cc1OCC` was run?
A: inactive

Q: For `CCc1ccc2ncc(C(=O)c3ccc(C)c(C)c3)c(N3CCC(C(N)=O)CC3)c2c1`, which Potency is on record?
A: inconclusive: 56.2 µM [inhibitor, partial curve]

Q: `COc1ccc(CNC(=O)CCn2c(=O)c3cccn3c3ccc(F)cc32)cc1` was tested. Which Potency did it give?
A: inconclusive: 25.1 µM [inhibitor, full curve, poor fit]

Q: How did the Potency turn out when `O=C(Cn1nc(-c2ccccc2)ccc1=O)NCCN1CCN(Cc2ccccc2)CC1` was run?
A: inactive

Q: Which Potency does the source give for `NC(N)=N/N=C/c1ccc(OCc2ccccc2)c(OCc2ccccc2)c1` here?
A: inconclusive: 50.1 µM [inhibitor, partial curve]

Q: For `CCn1nc(NC(=O)c2ccco2)c2cc3cc(C)ccc3nc21`, which Potency is on record?
A: inactive

Q: For `CCOC(=O)/C(=N\Nc1ccc(Cl)cc1)c1csc(Nc2ccccc2)n1`, which Potency is on record?
A: inconclusive: 56.2 µM [inhibitor, partial curve]

Q: Which Potency does the source give for `CC1C(=O)N2CCCc3cc(S(=O)(=O)NCc4ccccc4Cl)cc1c32` (stereo unspecified) here?
A: inactive

Q: Which Potency does the source give for `CN(C)c1ccc(CNC(=O)c2ccc(Cn3c(=O)c4cccn4c4cccnc43)cc2)cc1` here?
A: inactive

Q: How did the Potency turn out when `COc1ccc(-c2cn3cccnc3n2)cc1NC(=O)c1ccc(Br)o1` was run?
A: inconclusive: 89.1 µM [inhibitor, partial curve, poor fit]

Q: How did the Potency turn out when `Cc1ccc(-c2nnc(SCC(=O)N3CCOCC3)nc2-c2ccc(C)cc2)cc1` was run?
A: inconclusive: 79.4 µM [inhibitor, single point]

Q: With `O=C(CSc1c2c(nc3ccccc13)CCC2)Nc1ccc(F)cc1` as the compound, how does the Potency read?
A: inactive

Q: `CN(/N=C/c1ccccc1)C(=S)c1ccccc1` was tested. Which Potency did it give?
A: inconclusive: 56.2 µM [inhibitor, partial curve]

Q: How did the Potency turn out when `Cc1ccc(-c2cn(-c3cccc(Cl)c3)c(S(=O)(=O)CC(=O)Nc3ccccc3F)n2)cc1` was run?
A: inconclusive: 44.7 µM [inhibitor, partial curve]

Q: For `CCOc1ccc(C2CC(=O)N(c3cccc(F)c3)C3=C2C(=O)OC3)cc1` (stereo unspecified), which Potency is on record?
A: inactive

Q: `O=C(CNc1cccc(S(=O)(=O)N2CCCC2)c1)Nc1ccc(F)cc1F` was tested. Which Potency did it give?
A: inactive

Q: Which Potency does the source give for `O=C(NC1CCC(c2ccccc2)CC1)c1cccnc1` (stereo unspecified) here?
A: inactive

Q: For `CCOc1ccc(CN2CCc3nc(Nc4ccc5c(c4)OCCO5)ncc3C2)cc1`, which Potency is on record?
A: inconclusive: 44.7 µM [inhibitor, partial curve]

Q: `CC(C)c1ccc(NS(=O)(=O)c2ccc3nc(-c4ccccc4)[nH]c3c2)cc1` was tested. Which Potency did it give?
A: inactive

Q: `O=C(Nc1nnc2n1CCS2)c1ccc(F)cc1F` was tested. Which Potency did it give?
A: active: 50.1 µM

Q: `Cc1cn(C2CCCCO2)c(=O)nc1NO` (stereo unspecified) was tested. Which Potency did it give?
A: active: 89.1 µM

Q: For `c1ccc2c(c1)ncn2CCN1CCCCC1`, which Potency is on record?
A: inconclusive: 89.1 µM [inhibitor, single point]

Q: How did the Potency turn out when `CCS(=O)(=O)NCC(c1ccco1)N1CCN(c2ccccc2F)CC1` (stereo unspecified) was run?
A: inactive

Q: For `COc1ccc(C)cc1NC(=O)Cn1c(=O)n(Cc2nc(C)no2)c(=O)c2ccccc21`, which Potency is on record?
A: inactive

Q: How did the Potency turn out when `COc1ccc(C2=C(c3ccc(OC)c(OC)c3)CN3CCCCC3C2)cc1` (stereo unspecified) was run?
A: inconclusive: 56.2 µM [inhibitor, partial curve, poor fit]

Q: With `Clc1cccc(N/N=C(\Cc2nc3ccccc3[nH]2)c2ccccc2)c1` as the compound, how does the Potency read?
A: inconclusive: 39.8 µM [inhibitor, partial curve]

Q: Which Potency does the source give for `Cc1ccc(C)c(N2C(=O)C3C4C=CC(CC4)C3C2=O)c1` (stereo unspecified) here?
A: inactive
